The values below come from the supplement of paper PMC4604168 (melanoma cell lines).

Some of the results follow. Repeats are few or missing, and single values can be far off.
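Note: cells treated in 1,536-well plates, then fixed and DAPI-stained, with nuclei counted from automated high-throughput microscope images.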

In this test the test system is A101D. Description: cell count relative to DMSO control; melanoma cells; higher = more viable cells. The conditions noted are these: library dose: standard library concentration; 72 h.
In turn, `N#CC[C@H](C1CCCC1)n1cc(-c2ncnc3[nH]ccc23)cn1` [ruxolitinib] + COc1ccc(Cl)c(Nc2nc3ccccc3nc2NS(=O)(=O)c2cccc(NC(=O)C(C)(C)N)c2)c1 [XL147] (first compound 5 µM, partner dose 4 µM) yielded a cell count of 117%.

`N#CC[C@H](C1CCCC1)n1cc(-c2ncnc3[nH]ccc23)cn1` [ruxolitinib] + O=C(O)c1ccc(-c2c[nH]c3ncc(-c4ccccc4)cc23)cc1C1CCCC1 [GSK650394] (first compound 5 µM, partner dose 0.8 µM): the cell count stood at 88.1%.

Regarding `Cc1cc(Nc2cc(N3CCN(C)CC3)nc(Sc3ccc(NC(=O)C4CC4)cc3)n2)n[nH]1` [Tozasertib] + NCC(=O)Nc1ccc(-n2nc(C(F)(F)F)cc2-c2ccc3c(ccc4ccccc43)c2)cc1 [OSU03012] (first compound 0.03 µM, partner dose 5 µM), the cell count turned out to be 85.4%.

For `Cc1cc(Nc2cc(N3CCN(C)CC3)nc(Sc3ccc(NC(=O)C4CC4)cc3)n2)n[nH]1` [Tozasertib] + CCN(CC)CCNC(=O)c1c(C)[nH]c(/C=C2\C(=O)Nc3ccc(F)cc32)c1C [sunitinib] (first compound 0.03 µM, partner dose 2 µM), the cell count worked out at 62.2%. As for `N#CC[C@H](C1CCCC1)n1cc(-c2ncnc3[nH]ccc23)cn1` [ruxolitinib] + CCCCCCCCc1ccc(CCC(N)(CO)CO)cc1 [fingolimod] (first compound 5 µM, partner dose 10 µM), the cell count came out at 17.9%. `N#CC[C@H](C1CCCC1)n1cc(-c2ncnc3[nH]ccc23)cn1` [ruxolitinib] + CC(=O)c1c(C)c2cnc(Nc3ccc(N4CCNCC4)cn3)nc2n(C2CCCC2)c1=O [palbociclib] (first compound 5 µM, partner dose 0.2 µM) yielded a cell count of 63.4%. For `N#CC[C@H](C1CCCC1)n1cc(-c2ncnc3[nH]ccc23)cn1` [ruxolitinib] + CC[C@]1(O)C[C@H]2CN(CCc3c([nH]c4ccccc34)[C@@](C(=O)OC)(c3cc4c(cc3OC)N(C=O)[C@H]3[C@@](O)(C(=O)OC)[C@H](OC(C)=O)[C@]5(CC)C=CCN6CC[C@]43[C@@H]65)C2)C1 [vincristine] (first compound 5 µM, partner dose 0.0005 µM), the cell count stood at 69.9%.

`Cc1cc(Nc2cc(N3CCN(C)CC3)nc(Sc3ccc(NC(=O)C4CC4)cc3)n2)n[nH]1` [Tozasertib] + CN1CCN(c2ccc3nc(-c4c(N)c5c(F)cccc5[nH]c4=O)[nH]c3c2)CC1 [Dovitinib] (first compound 0.03 µM, partner dose 0.5 µM) returned a cell count of 73.2%.

For `N#CC[C@H](C1CCCC1)n1cc(-c2ncnc3[nH]ccc23)cn1` [ruxolitinib] + O=c1[nH]nc(Sc2ncc([N+](=O)[O-])s2)n1-c1ccc2c(c1)OCCO2 [BI78D3] (first compound 5 µM, partner dose 1 µM), the cell count came out at 87.4%. `CC[C@]1(O)C[C@H]2CN(CCc3c([nH]c4ccccc34)[C@@](C(=O)OC)(c3cc4c(cc3OC)N(C=O)[C@H]3[C@@](O)(C(=O)OC)[C@H](OC(C)=O)[C@]5(CC)C=CCN6CC[C@]43[C@@H]65)C2)C1` [vincristine] + CC(=O)c1c(C)c2cnc(Nc3ccc(N4CCNCC4)cn3)nc2n(C2CCCC2)c1=O [palbociclib] (first compound 0.0005 µM, partner dose 0.2 µM) displayed a cell count of 45.8%.

For the compound `Cc1cc(Nc2cc(N3CCN(C)CC3)nc(Sc3ccc(NC(=O)C4CC4)cc3)n2)n[nH]1` [Tozasertib] + CO[C@H]1C[C@@H]2CC[C@@H](C)[C@@](O)(O2)C(=O)C(=O)N2CCCC[C@H]2C(=O)O[C@H]([C@H](C)C[C@@H]2CC[C@@H](OCCO)[C@H](OC)C2)CC(=O)[C@H](C)/C=C(\C)[C@@H](O)[C@@H](OC)C(=O)[C@H](C)C[C@H](C)/C=C/C=C/C=C/1C [everolimus] (first compound 0.03 µM, partner dose 0.1 µM), the cell count was found to be 83.3%. As for `Cc1cc(Nc2cc(N3CCN(C)CC3)nc(Sc3ccc(NC(=O)C4CC4)cc3)n2)n[nH]1` [Tozasertib] + COc1cc(Nc2ncc(F)c(Nc3ccc4c(n3)NC(=O)C(C)(C)O4)n2)cc(OC)c1OC [Tamatinib] (first compound 0.03 µM, partner dose 2 µM), the figure is 24.1%.

For `Cc1cc(Nc2cc(N3CCN(C)CC3)nc(Sc3ccc(NC(=O)C4CC4)cc3)n2)n[nH]1` [Tozasertib] + CCCCCCCCCCCCCCCCCCOP(=O)([O-])OC1CC[N+](C)(C)CC1 [Perifosine] (first compound 0.03 µM, partner dose 2 µM), the cell count was determined as 89.1%. In the case of `CC[C@]1(O)C[C@H]2CN(CCc3c([nH]c4ccccc34)[C@@](C(=O)OC)(c3cc4c(cc3OC)N(C=O)[C@H]3[C@@](O)(C(=O)OC)[C@H](OC(C)=O)[C@]5(CC)C=CCN6CC[C@]43[C@@H]65)C2)C1` [vincristine] + O=C(/C=C/c1cccnc1)NCCCCC1CCN(C(=O)c2ccccc2)CC1 [FK866] (first compound 0.0005 µM, partner dose 0.05 µM) it was 60.8%.

For the compound `N#CC[C@H](C1CCCC1)n1cc(-c2ncnc3[nH]ccc23)cn1` [ruxolitinib] + Cn1nnc2c(C(N)=O)ncn2c1=O [temozolomide] (first compound 5 µM, partner dose 10 µM), the cell count was 101%. In the case of `CC[C@]1(O)C[C@H]2CN(CCc3c([nH]c4ccccc34)[C@@](C(=O)OC)(c3cc4c(cc3OC)N(C=O)[C@H]3[C@@](O)(C(=O)OC)[C@H](OC(C)=O)[C@]5(CC)C=CCN6CC[C@]43[C@@H]65)C2)C1` [vincristine] + Cn1cncc1[C@@](N)(c1ccc(Cl)cc1)c1ccc2c(c1)c(-c1cccc(Cl)c1)cc(=O)n2C [tipifarnib] (first compound 0.0005 µM, partner dose 0.05 µM) it was 35.4%; in that of `N#CC[C@H](C1CCCC1)n1cc(-c2ncnc3[nH]ccc23)cn1` [ruxolitinib] + NC1(c2ccc(-c3nc4ccn5c(=O)[nH]nc5c4cc3-c3ccccc3)cc2)CCC1 [MK2206] (first compound 5 µM, partner dose 2 µM), 104%; in that of `CC[C@]1(O)C[C@H]2CN(CCc3c([nH]c4ccccc34)[C@@](C(=O)OC)(c3cc4c(cc3OC)N(C=O)[C@H]3[C@@](O)(C(=O)OC)[C@H](OC(C)=O)[C@]5(CC)C=CCN6CC[C@]43[C@@H]65)C2)C1` [vincristine] + C[C@@H](N)c1ccc(C(=O)Nc2ccnc3[nH]ccc23)cc1 [RKI983] (first compound 0.0005 µM, partner dose 2 µM), 36%.

The compound `N#CC[C@H](C1CCCC1)n1cc(-c2ncnc3[nH]ccc23)cn1` [ruxolitinib] + O=C(/C=C/c1cccnc1)NCCCCC1CCN(C(=O)c2ccccc2)CC1 [FK866] (first compound 5 µM, partner dose 0.05 µM) registered a cell count of 103%. In the case of `Cc1cc(Nc2cc(N3CCN(C)CC3)nc(Sc3ccc(NC(=O)C4CC4)cc3)n2)n[nH]1` [Tozasertib] + Clc1ccc(Nc2nnc(Cc3ccncc3)c3ccccc23)cc1 [vatalanib] (first compound 0.03 µM, partner dose 10 µM) it was 83.6%; in that of `CC[C@]1(O)C[C@H]2CN(CCc3c([nH]c4ccccc34)[C@@](C(=O)OC)(c3cc4c(cc3OC)N(C=O)[C@H]3[C@@](O)(C(=O)OC)[C@H](OC(C)=O)[C@]5(CC)C=CCN6CC[C@]43[C@@H]65)C2)C1` [vincristine] + O=C1NC(=O)/C(=C/c2ccc(-c3ccc(F)cc3O)o2)S1 [AS252424] (first compound 0.0005 µM, partner dose 5 µM), 51%; in that of `CC[C@]1(O)C[C@H]2CN(CCc3c([nH]c4ccccc34)[C@@](C(=O)OC)(c3cc4c(cc3OC)N(C=O)[C@H]3[C@@](O)(C(=O)OC)[C@H](OC(C)=O)[C@]5(CC)C=CCN6CC[C@]43[C@@H]65)C2)C1` [vincristine] + Nc1nc(F)nc2c1ncn2[C@@H]1O[C@H](CO)[C@@H](O)[C@@H]1O [fludarabine] (first compound 0.0005 µM, partner dose 1 µM), 72.6%. As for `Cc1cc(Nc2cc(N3CCN(C)CC3)nc(Sc3ccc(NC(=O)C4CC4)cc3)n2)n[nH]1` [Tozasertib] + CC[C@]1(O)C[C@H]2CN(CCc3c([nH]c4ccccc34)[C@@](C(=O)OC)(c3cc4c(cc3OC)N(C=O)[C@H]3[C@@](O)(C(=O)OC)[C@H](OC(C)=O)[C@]5(CC)C=CCN6CC[C@]43[C@@H]65)C2)C1 [vincristine] (first compound 0.03 µM, partner dose 0.0005 µM), the figure is 67.3%; as for `N#CC[C@H](C1CCCC1)n1cc(-c2ncnc3[nH]ccc23)cn1` [ruxolitinib] + CS(=O)(=O)CCNCc1ccc(-c2ccc3ncnc(Nc4ccc(OCc5cccc(F)c5)c(Cl)c4)c3c2)o1 [lapatinib] (first compound 5 µM, partner dose 4 µM), 92.1%; as for `CC[C@]1(O)C[C@H]2CN(CCc3c([nH]c4ccccc34)[C@@](C(=O)OC)(c3cc4c(cc3OC)N(C=O)[C@H]3[C@@](O)(C(=O)OC)[C@H](OC(C)=O)[C@]5(CC)C=CCN6CC[C@]43[C@@H]65)C2)C1` [vincristine] + Cn1c(=O)n(-c2ccc(C(C)(C)C#N)cc2)c2c3cc(-c4cnc5ccccc5c4)ccc3ncc21 [NVP-BEZ235] (first compound 0.0005 µM, partner dose 0.02 µM), 46.5%.
